The record followed here is the RNAGym collection of RNA variant scans (doi:10.7554/elife.90254).

B1: LINE1-mini (parent)
chain: GGCAGAGCUCAACACAGCGUGGCAAAGUGGCUGUGGCUAGACUGCC

The source gives no read counts; variants with many changes may rest on few reads.

Variants of B1 are the subject of this data set. As to the kind of experiment: self-cleavage, relative activity (ratio to wild type); higher = more cleavage; in vitro, sequencing; the parent is a self-cleaving ribozyme.
Consider GGCAGUGCUCAACACAGCGUGGCAAAGUGGCUAUGGCUUGGCUGCC [A6U G33A A39U A41G], for which the self-cleavage amounted to 0.04. Take GGCAUAGCUCAACACAGCGUGGCAAAGUGGCUGUCGCUAUACUGCC [G5U G35C G40U]: the self-cleavage was 0.02. For GGCAAAGCUCAACACAGCGUGUCAAAGUGGAUGUGGCUAGACAGCU [G5A G22U C31A U43A C46U], the self-cleavage is 0.02. The same measure for GGCAGAGCUCAACAUAGAGUGGCAAAGUGGAUGUCCCUAGACUGCC [C15U C18A C31A G35C G36C]: 0.02. The same measure for GGCACAGCGGAACAUAGCGUGGCAAAGGGGCAGUGGCCAGACUGCC [G5C U9G C10G C15U U28G U32A U38C]: 0.01; for GGCAGGGCUCAACAAAUCGUGGCAAAGUGGCUGGGGCUAGACUGCC [A6G C15A G17U U34G]: 0.03; for GGCAGACCUCAACACAGCGUCGCAAAGUGGCUGUAGCUAGACAGCC [G7C G21C G35A U43A]: 0.02. The figure for GGCAGAGCUCAACACAUCCUGGCAAAAUGGCUGUGGCUAGACUGCC [G17U G19C G27A] is 1.95; for GGCAGAGCUCAACACAGCAGGGCUAAGUGGCUGUGUCUAGACUGCC [G19A U20G A24U G36U] it is 0.01. Turning to GGCAGAGCACAACACAGCGUGGCAAACUGGUUGUGGCUAGACUGCA [U9A G27C C31U C46A], the self-cleavage stood at 0. The figure for GGCAGAGCUAAACAUAGCGUGGCAAAAUGGCUGUGGCUAGACUGCC [C10A C15U G27A] is 0.08; for GGCAGAGCUCAACACAGCGAGGCUAACUGGCUGUGGCUAGUCUGCC [U20A A24U G27C A41U] it is 0.15. The same measure for GGCAGAGCUCAACACAGCUUGGCUAAGUGGCUGUGGCUAGACUGAC [G19U A24U C45A]: 0.28. The same measure for GGCAGAGCUCAACACAGUGUGGCCAUGUGGCUGUGGCUAGACUGCC [C18U A24C A26U]: 0.27; for GGGAGAGCUCAACACUGCUUGGAAAAGUGGCUGUGGCUAGACUGCC [C3G A16U G19U C23A]: 0.03. As to GGGAGAGCUCAACACAGCGUGGCAAAGUGGUUGUGGGUAGACUGCC [C3G C31U C37G], the self-cleavage was 0.05. The figure for GGCCGAGCCCAACACAGCGUGGCUAAGUGGCUGUGGCAAGACUGCC [A4C U9C A24U U38A] is 0.11; for UGCAGAGCGCAACUCAGCGUGUCAAAGUGGCUGUGGCUUGACUGCC [G1U U9G A14U G22U A39U] it is 0.01.

As for GGCAGAGCUCAACACAGCGUGCCAAAGUGGCUGUGGCUAGUCAGCC [G22C A41U U43A], the self-cleavage is 0.09. The figure for GGCAGAGCGCAACACAGCGAGGCAAAGUGGCUGUGGCUAGACGUCC [U9G U20A U43G G44U] is 0.45; for GGCAGAUCUAAUCACAGCGUGGCAAAGUGGCUGUGGCUAGGCUGCC [G7U C10A A12U A41G] it is 0.04. The figure for GGAAGAGCUCAAAACAGCUUGGCAAGGUGGCUGUGGCUAGACUGCA [C3A C13A G19U A26G C46A] is 0.07; for GGCAGAGCUCAAAACAGCGUGGCAAAAUGGCUGUGGCUCGACUGCC [C13A G27A A39C] it is 0.13. Regarding GGCAGAGCUCAACACAGCGUUGCAAAGUGGAAGUGGCUAGUCUGCC [G21U C31A U32A A41U], the self-cleavage is 0.08. Turning to GGCAGAGCUCAGGACAGCGUGGCAAAGUGACUGUGGCUAGACUGCC [A12G C13G G30A], the self-cleavage came to 0. For GGCAUAGCUCAACACAGCGUGUCAAAGUGGCUGUGGCUAGAGUGCC [G5U G22U C42G], the self-cleavage came out at 0.03. As for GGCAGAGCUCAACACAGAGUGGCGAAUGGGAUCUGGCUAGACUGCC [C18A A24G G27U U28G C31A G33C], the self-cleavage turned out to be 0.01. As to AGCAGAGCUCAACACAGCGUGGCAAAGUGGCUGGGACUACACGGCC [G1A U34G G36A G40C U43G], the self-cleavage came to 0.03. Turning to GGCGUAGCUCAACACCGCGUGACAAAGUGGCUGUGGCUAGACUGCC [A4G G5U A16C G22A], the self-cleavage was 0.08. The figure for GGCAGAACUCAACACAGCGUGGCAAUGUGGCUAUGGCUAGACUGCC [G7A A26U G33A] is 0.48. The figure for GGCAUAGCUCAACACGGCGUGGCAAAGUGCGUGUGGCUAGCCUGCC [G5U A16G G30C C31G A41C] is 0; for UGCAGAGCUCUACACAGCGUGGCAAAUUGGCUGUGGCUAGACUGCC [G1U A11U G27U] it is 0.03.

For GGCAGAGCUCAACACUGCGUGGCAAAGUGUCUUUGGCUAGACUGCC [A16U G30U G33U], the self-cleavage turned out to be 0.02. GGCAGAGCUCUACACAGCGUGGCAAAGUGGCUGUGGCUAGACUGAU [A11U C45A C46U]: the self-cleavage was determined as 0.03.

Regarding GGCACAGCUCAACACACCGUAGCAAAGUGGCUGUGGUUAGACUGCC [G5C G17C G21A C37U], the self-cleavage was 0.04.

Consider GGCAGAGCUCAACACAGCGUUGCAAAAUGGCUGUGACUAGACUGCC [G21U G27A G36A], for which the self-cleavage was 0.53. The same measure for GGCAGAGCUCGACACAGCGUGGCAAAGUCGCUGCGGCUAGAUUGCC [A11G G29C U34C C42U]: 0; for GGCUGAGUUCAACACACCGUGGCAAAGUGGCUGUGGCUAGGCCGCC [A4U C8U G17C A41G U43C]: 0.03; for GGCAGAGCUAAAUACAGCGUGGCAAAGUGGCUGUGGCUAUACUGCC [C10A C13U G40U]: 0.03.

For GGCAGAGCUCAACAUAGCGUGGCAGAUUGGCUGUGGCUAGACUGCC [C15U A25G G27U], the self-cleavage turned out to be 0.1. The same measure for GGCAGAGAUCAACAGAGCGUGGCAAAGUGGCUGUGGCUAGGCUGCG [C8A C15G A41G C46G]: 0.23. GGCAGACCUCACCACAGCGUGGCAAAGUGGCUGAGGCUAGAAUGCC [G7C A12C U34A C42A]: the self-cleavage worked out at 0. The figure for GGCAGGGCUCAACGCAUCGUGGCAAAGUGUCUGUACCUAGGCUGCC [A6G A14G G17U G30U G35A G36C A41G] is 0.05.

In the case of GGCAGAGCUCCACUCAGCGUGUCAAAGUGGCUGUGGCUAUACUGCC [A11C A14U G22U G40U], the self-cleavage stood at 0.01. For GGCAGAGCUAAACACAGCGUGGCACAGUGGCGGUGGCUAGACUGCC [C10A A25C U32G], the self-cleavage is 0.02.

For the variant GGCAGAGCUCAACAGAGCGUGGAAAAGUGGCUGUGGCUAUACCGCC [C15G C23A G40U U43C], the self-cleavage is 0. The figure for GGAAGAGCUGAACACAGCGUGGCAAAGUGGCUGUGGCUAGACAGCC [C3A C10G U43A] is 0.02. The same measure for GGCAGAGCUCAACACUGCGUGGGAGAGUGCCUGUGGCUAGACUGCC [A16U C23G A25G G30C]: 0.23; for GCCAGAGCUCAACGCAGCGUGGCCAAGUGGCUGUGGCUAGACUGCC [G2C A14G A24C]: 0.02; for GGCAGAGAUCAAAACAGCGAGGCAGAGUGGCUGUGGCAAGACUGCC [C8A C13A U20A A25G U38A]: 0.06.

Consider GGCAUAGCUCAACACAGCGUGGCAAAGUGGGUGUCGCUAGUCUGUC [G5U C31G G35C A41U C45U], for which the self-cleavage was found to be 0.03. The figure for AGCAGAGCCCCACACAGCGUGGCAACGUGGCUGUCGCUAGACUGCC [G1A U9C A11C A26C G35C] is 0. On to GGCAGAGCCUAACACAGCGUGGCAAAGCGGCUGUGUCUACACUGCC [U9C C10U U28C G36U G40C], for which the self-cleavage is 0.01. The figure for GGCAGAGCUGAACACAGCGUCGCAAAGUGGCUGUGGAUAGACUGCC [C10G G21C C37A] is 0; for GGAAGAGCUCAACACAGCGUGGCAAAGUGGCUGUGGCUAAAGCGCC [C3A G40A C42G U43C] it is 0.04. On to GGCAGAGCUCAUCACAGCGUGGCAAAGUGGCUCUGGCUAGCCUGCC [A12U G33C A41C], for which the self-cleavage came out at 0.01.
